Laboratory results reported in PubChem BioAssay AID1745853 (National Center for Advancing Translational Sciences (NCATS), 2022).
Some of the results follow. Further columns of the screen follow, without active or inactive calls.

Key:
Test in all cases: Primary Screen for Target Class Profiling of Small Molecule Inhibitors of Methyltransferases
[1] = molecular target: Glycine N-methyltransferase (Homo sapiens) (UniProt Q14749); settings: purified enzyme, MTase-Glo SAH luminescence; measured here: GNMT inhibition; at 40 µM; stronger effect = lower value
Outline: (§1)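 Each enzyme was reacted with SAM and its substrate, with compounds tested once at 40 uM; SAH formed was read by MTase-Glo luminescence.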

[2] = molecular target: Guanidinoacetate N-methyltransferase (Homo sapiens) (UniProt Q14353); settings: purified enzyme, MTase-Glo SAH luminescence; measured here: GAMT inhibition; at 40 µM; stronger effect = lower value
Outline: as §1

[3] = molecular target: Histamine N-methyltransferase (Homo sapiens) (UniProt P50135); settings: purified enzyme, MTase-Glo SAH luminescence; measured here: HNMT inhibition; at 40 µM; stronger effect = lower value
Outline: as §1

[4] = molecular target: Nicotinamide N-methyltransferase (Homo sapiens) (UniProt P40261); settings: purified enzyme, MTase-Glo SAH luminescence; measured here: NNMT inhibition; at 40 µM; stronger effect = lower value
Outline: as §1

[5] = molecular target: Phenylethanolamine N-methyltransferase (Homo sapiens) (UniProt P11086); settings: purified enzyme, MTase-Glo SAH luminescence; measured here: PNMT inhibition; at 40 µM; stronger effect = lower value
Outline: as §1
On the % scale 0 is the no-effect control and ±100 the full control effect.

Structure (SMILES)	activity change, negative = inhibition [1] [%]	activity change, negative = inhibition [2] [%]	activity change, negative = inhibition [3] [%]	activity change, negative = inhibition [4] [%]	activity change, negative = inhibition [5] [%]
O=C(c1ccsc1)N1CCC2(CC1)CN(c1ccncn1)CC2CO (configuration not stated)	-0.568	2.87	-1.22	-0.398	2.11
CCCn1c(=O)c2ccccc2n2c(SCC(=O)Nc3ccc(CC)cc3)nnc12	-4.04	2.02	7.47	2.87	4
CCC1C(=O)N(C)c2cnc(Nc3ccc(C(=O)NC4CCC(N5CCN(CC6CC6)CC5)CC4)cc3OC)nc2N1C(C)C (configuration not stated)	-29.5		-37.4		
COCCOCc1nc(C2CCCN2C(=O)Cc2cccc(F)c2)no1 (configuration not stated)	-2.41	-3.11	2.01	-6.54	-1.79
CCc1ccc(NC(=O)Cn2c(=O)c3cc(Cl)ccc3n3nncc23)cc1	-4.38	0	7.04	-5.61	0.612
COC(=O)C1=CO[C@@H](O[C@@H]2O[C@H](CO)[C@@H](O)[C@H](O)[C@H]2O)[C@H]2[C@@H]1[C@H](O)[C@H](O)[C@]2(C)O	7.67	9.33	12.8	-1.48	8.99
COc1ccccc1CN1C(=O)c2cc3ccccc3n2CC1(C)C(=O)NCCCOC(C)C (configuration not stated)	4.88	0.365	8.61	7.62	1.48
C=C1CC23CC1(O)CCC2C1=CC2OC(=O)C(C)(C2O)C1C3C(=O)O (configuration not stated)	-1.37	-1.64	5.63	-10.8	-1.2
Cc1[nH]c2ccccc2c1CN1CCc2nc(N3CCN(C)CC3)[nH]c(=O)c2CC1	-4.15	-0.285	-20.5	-4.2	2.98
Nc1cc(Cl)c(NC2=NCCN2)c(Cl)c1	1.64	12.8	6.25	-6.26	3.88
O[C@H]1CC[C@@H](Cc2cc(-c3ccc(F)cc3)on2)O[C@@H]1CNC1CCCCC1	-10.8	-9.47	-9.44	-23.8	-36.2
O=c1c2ccccc2n2c(=O)n(Cc3ccc(F)cc3)nc2n1CCc1ccccc1	2.23	0	9.89	6.07	2.18
COc1ccc(NC(=O)Cn2c(=O)oc3cc(S(=O)(=O)N4CCCC4)ccc32)cc1Cl	0.373	5.27	8.91	6.13	-26.4
COc1ccc(/C=C/C(=O)O[C@@H]2[C@@H](O)[C@H](C)O[C@@H](O[C@H]3[C@@H]4C=CO[C@@H](O[C@H]5O[C@@H](CO)[C@H](O)[C@@H](O)[C@@H]5O)[C@@H]4[C@@]4(CO)O[C@@H]34)[C@@H]2OC(C)=O)cc1	-0.911	3.95	5.84	-8.68	3.03
COc1ccc(CN2C(=O)c3cc4occc4n3CC2(C)C(=O)NC2CCCCCCC2)cc1 (configuration not stated)	-7.68	3.16	-1.46	-14.9	-1.93
COc1ccc(-c2n[nH]n3c2nc(=O)c2ccc(C(=O)NCc4ccc(OC)c(OC)c4)cc23)cc1	-32.8	3.92	7.03	6.05	-0.241
CC1(C(=O)NC2CCCCCCC2)Cn2c(ccc2-c2ccco2)C(=O)N1CCc1ccccc1 (configuration not stated)	-8.17	3.14	-3.63	-10.4	-7.52
Cc1cccc(Cn2nc3n(C)c(=O)c4ccc(C(=O)NC5CCCC5)cc4n3c2=O)c1	-1.79	5.06	9.35	-5.96	-1.96

Structure (SMILES)	activity change, negative = inhibition [1] [%]	activity change, negative = inhibition [2] [%]	activity change, negative = inhibition [3] [%]	activity change, negative = inhibition [4] [%]	activity change, negative = inhibition [5] [%]
CCOC(=O)C(C)Oc1cc2oc(=O)cc(-c3ccccc3)c2cc1Cl (configuration not stated)	-8.62	0.774	1.38	-2.01	-5.57
COc1ccc(-n2c(SCCCN3C(=O)c4cccc5cccc(c45)C3=O)nnc2-c2ccncc2)cc1	1.91	3.92	8.78	-31.1	-2.65
CCOc1ccc(CCNC(=O)CCn2ccc3cc(S(=O)(=O)N4CCCC4)ccc32)cc1	-3.11	4.16	-0.264	-3.83	-1.56
CCCn1c(=O)c2ccc(C(=O)NC3CCCCC3)cc2n2c(=O)n(Cc3ccc(C)cc3)nc12	3.14	0	5.8	5.29	4.85
Cc1ccc(-c2ccc3ncc4c(c3n2)n(C2CCN(C(=O)[C@H](C)O)CC2)c(=O)n4C)cn1	-42.9	-15.6	-41.8	-31.7	-30.9
Cc1ccc(N2C(=O)c3cc4occc4n3CC2(C)C(=O)NC2CCC(C)CC2)cc1C (configuration not stated)	-7.22	2.81	-0.45	0.064	-6.19
Cc1nc2c3ccccc3n3c(CCCC(=O)NCCCOC(C)C)nnc3n2n1	-8.91	0	2.71	10.4	-3.39
CC1(C(=O)NCc2ccccc2)Cn2c(cc3ccccc32)C(=O)N1Cc1ccc(Cl)cc1 (configuration not stated)	-1.39	0	3.15	0.747	-2.61
CN(C)[C@@H]1CN(C(=O)CCc2ccccc2)C[C@H]1CO	-3.77	-6.75	-2.22	-6.67	-4.73
COc1cccc(Nc2ncnn3ccc(CN4CC[C@@H](N)[C@H](O)C4)c23)c1	-12.9	-13.2	-9.83	-25.3	-14.8
Cc1ccccc1C(C(=O)NC1CCCCC1)N(C(=O)CNc1ccc(C#N)cc1)c1cccc(F)c1 (configuration not stated)	-1.58	-19.2	5.11	-28.8	-4.86
C[C@@H]1C[C@H]2[C@@H]3CCC4=CC(=O)C=C[C@]4(C)[C@@]3(F)[C@@H](O)C[C@]2(C)[C@@]1(O)C(=O)COP(=O)(O)O	-4.55	-0.213	6.47	-8.01	0.694
O=C(CCCc1nc2ccccc2s1)N1CCc2nc3cc(-c4ccccc4)[nH]n3c(=O)c2C1	-19.6	-6.51	-8.67	-14.1	-13.2
OCCN1CCN(c2ccc(-c3nc(-c4cccc(C(F)(F)F)c4)no3)cn2)CC1	-3.76	2.51	-2.28	-7.72	-2.25
Cn1c2c(c3ccccc31)C(C(=O)NCc1ccc(F)cc1)N(Cc1ccc(Cl)cc1)C(=O)CS2 (configuration not stated)	0.446	0	8.67	4.23	6.27
Cc1cccc(CC(=O)N2CCc3c2ccc(-c2cn(C)c4ncnc(N)c24)c3F)n1	-25.5	-4.95	-5.14	-29.2	-19.9
N#Cc1cnc2cnc(NCc3cccnc3)cc2c1Nc1ccc(F)c(Cl)c1	-86.2	-65.9	-80.9	-70.9	-80.1
COc1cccc(CN2C(=O)c3ccc(-c4ccco4)n3CC2(C)C(=O)NCc2ccccc2)c1OC (configuration not stated)	0.973	0.776	6.62	5.5	2.57
